Out of some 39,000 compounds screened, about 220 (0.56%) showed activity. The list shows a part of the results.
These molecules were tested on Escherichia coli K-12 BW25113 (assay: relative growth (OD600 normalised to plate interquartile mean) (fraction); higher = less growth inhibition, active = 0.2 or less). Settings: 50 µM; LB; incubation time: overnight (16-24 h).
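Note: static incubation at 37 °C against the wild-type strain, values averaged over two biological replicates.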

Compound | relative growth
C[C@@H]1CN([C@H](C)CO)C(=O)c2cccc(NC(=O)CCCCCC(=O)Nc3ccccc3N)c2O[C@H]1CN(C)C(=O)Nc1cccc2ccccc12 | inactive: 0.964
CO[C@H]1CN(C)C(=O)c2ccc(NS(=O)(=O)CC(F)(F)F)cc2OC[C@@H](C)N(C(=O)NC(C)C)C[C@H]1C | inactive: 1.01
O=C(C[C@H]1C[C@@H]2c3cc(NC(=O)C4CCOCC4)ccc3O[C@@H]2[C@H](CO)O1)NCc1ccc2c(c1)OCO2 | inactive: 0.898
O=C1O[C@H](c2ccccc2)[C@H](c2ccccc2)N2[C@H]1[C@@H](C(=O)Nc1nc3ccccc3s1)[C@]1(C(=O)Nc3ccc(C#CCCO)cc31)[C@H]2c1ccccc1OCCO | inactive: 1.05
C[C@H](CO)N1C[C@H](C)[C@H](CN(C)Cc2ccccc2)Oc2ccc(NC(=O)Cn3cnnn3)cc2CC1=O | inactive: 1.03
C[C@H]1CN([C@@H](C)CO)C(=O)c2cc(NC(=O)Nc3ccc(C(F)(F)F)cc3)ccc2O[C@H]1CN(C)C(=O)Nc1ccccc1 | inactive: 1.06
Cc1ccc(S(=O)(=O)N(C)C[C@@H]2Oc3ccc(NC(=O)Nc4cccc5ccccc45)cc3C(=O)N([C@@H](C)CO)C[C@@H]2C)cc1 | inactive: 1.03
CSc1ncc(C(=O)NN)n1C | inactive: 1
CN(C)C(=O)C[C@@H]1C=C[C@H](NC(=O)C2CC2)[C@H](CO)O1 | inactive: 1.04
C[C@H](CO)N1C[C@H](C)[C@@H](CN(C)C(=O)Nc2ccc3c(c2)OCO3)Oc2cc(C#Cc3ccncc3)ccc2S1(=O)=O | inactive: 1.05
O=C(C[C@@H]1CC[C@@H]2[C@H](COC[C@H](O)CN2S(=O)(=O)c2cccc(F)c2)O1)NCc1ccc2c(c1)OCO2 | inactive: 1.02
C[C@H](CO)N1C[C@H](C)[C@H](CN(C)S(=O)(=O)c2ccc(Oc3ccccc3)nc2)OCc2cn(nn2)CCCC1=O | inactive: 0.968
C[C@@H]1CCCCO[C@H](CN(C)Cc2ccc(Cl)c(Cl)c2)[C@H](C)CN([C@H](C)CO)C(=O)c2cc(NS(=O)(=O)c3cccs3)ccc2O1 | inactive: 1.05
CCOC(=O)c1cc2c(c(-c3cccc(Br)c3)n1)[C@@H](CCO[Si](C)(C)C(C)(C)C)N([S@](=O)C(C)(C)C)C2 | inactive: 1.04
COc1ccc2c3c([nH]c2c1)[C@H](CO)N(C[C@]13CCN(CC1)Cc1ccccc1F)S(=O)(=O)c1cn(cn1)C | inactive: 1.03
Cc1ccc(S(=O)(=O)Nc2ccc3c(c2)C(=O)N([C@@H](C)CO)C[C@H](C)[C@H](CN(C)Cc2ccc4c(c2)OCO4)OCCCC[C@@H](C)O3)cc1 | inactive: 0.981

Reference: the supplement of paper PMC9446081
